In all, about 110,000 compounds went through this assay and about 230 (0.21%) showed an effect of 50% or more. This is one part of the list.
These compounds were tested against DPAP1 (Plasmodium falciparum, UniProt Q8IIJ9) (assay: primary screen, percent inhibition; read by cleavage of a fluorogenic dipeptide substrate; higher = more effect of the substance).
Parameters: species or system P. falciparum D10 trophozoite lysates; single well
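Note: 30 min substrate incubation versus DMSO and 10 µM JCP410 controls.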

Chain of DPAP1 (Q8IIJ9 whole entry, looked up): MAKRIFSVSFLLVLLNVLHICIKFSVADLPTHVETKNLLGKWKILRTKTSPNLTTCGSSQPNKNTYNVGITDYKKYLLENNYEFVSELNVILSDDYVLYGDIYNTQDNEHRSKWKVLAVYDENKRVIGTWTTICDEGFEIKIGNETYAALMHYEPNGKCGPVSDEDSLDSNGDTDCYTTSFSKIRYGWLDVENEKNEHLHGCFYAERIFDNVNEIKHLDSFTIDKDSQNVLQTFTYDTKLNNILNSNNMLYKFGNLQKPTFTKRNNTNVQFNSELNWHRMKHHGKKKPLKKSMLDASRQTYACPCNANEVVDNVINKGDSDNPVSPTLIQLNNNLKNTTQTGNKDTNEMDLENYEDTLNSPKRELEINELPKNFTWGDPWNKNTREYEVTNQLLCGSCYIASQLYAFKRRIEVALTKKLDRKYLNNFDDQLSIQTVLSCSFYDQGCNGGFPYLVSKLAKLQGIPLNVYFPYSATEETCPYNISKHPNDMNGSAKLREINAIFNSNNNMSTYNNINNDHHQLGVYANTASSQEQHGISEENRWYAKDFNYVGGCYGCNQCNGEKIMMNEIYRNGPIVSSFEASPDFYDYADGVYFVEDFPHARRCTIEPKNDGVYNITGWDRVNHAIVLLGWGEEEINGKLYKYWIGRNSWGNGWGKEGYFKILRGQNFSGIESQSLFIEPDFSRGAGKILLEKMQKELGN

SMILES | % Inhibition @ 10 uM [%]
CCN1C2C3N(CC)C4C1N(C(C)=O)C(C(N2C(C)=O)N3C(C)=O)N4C(C)=O | 13.6
Cc1ccc(CNC(=O)CN(C)S(=O)(=O)c2cccc3cccnc23)cc1 | -6.07
Cc1ccc(OCC(=O)NCc2cccnc2)cc1 | -6.67
COc1ccc2nc3sc(C(=O)N4CCC5(CC4)OCCO5)cc3cc2c1 | -4.16
Clc1cc2c(c3ncccc13)OCN(Cc1ccco1)C2 | 2.54
CCOC(=O)C1=C(N)OC2=C(C(=O)CC(C)(C)C2)C1c1ccc(OCc2ccccc2)cc1 (centres unmarked) | -0.142
Cc1ccc([S+](O)Nc2cccc(C(=O)O)c2)cc1 (centres unmarked) | -3.09
O=C(CN1C(=O)c2ccccc2C1=O)NCc1ccccc1C(F)(F)F | 1.88
COc1ccc(-c2nc3ncccn3c2NC2CCCC2)cc1 | 2.28
CC1CCCC(N2CCN(C(=O)c3ccc(F)cc3)CC2)C1 (centres unmarked) | 0.147
O=C(COc1ccccc1)Nc1nnc(S(=O)(=O)N2CCCCC2)s1 | -5.37
CCOc1ccccc1NC(=O)CN(c1ccccc1F)S(=O)(=O)c1ccccc1 | 1.89
O=C1CCCCC1CN(Cc1ccccc1)Cc1ccccc1 (centres unmarked) | -0.807
Cc1nc2sc(C(c3ccc(Br)cc3)N3CCN(CCO)CC3)c(O)n2n1 (centres unmarked) | -1.03
O=c1c2oc3ccccc3c2ncn1Cc1cccc(F)c1 | 7.84
COc1ccc(-c2csc(-c3cc4cc(Cl)cc(Cl)c4oc3=O)n2)cc1 | -2.42
CCCc1nnc(NC(=O)CN2C(=O)c3ccccc3S2(=O)=O)s1 | 7.85
Cc1occc1C(=O)NCCCCNC(=O)c1ccoc1C | 2.93
CCOc1cc(C=C2C(=O)OC(C)(c3ccccc3)OC2=O)ccc1O (centres unmarked) | -1.47
CCOc1ccc2nc(NC(=O)CSc3nc(C)c(CC(C)C)[nH]3)sc2c1 | 4.31
COc1ccccc1-c1cc2nc(C)c(CCC(=O)Nc3cccnc3)c(C)n2n1 | -0.465
CCC(C(=O)Nc1cccc(NC(C)=O)c1)c1ccccc1 (centres unmarked) | 0.512
COc1ccccc1CC(C)NCCC1CCCN1C (centres unmarked) | -3.8
CC1CC2=C(CC1CNCCCN(C)C)C(C)(C)CCC2 (centres unmarked) | -0.13
CC(C)n1c(C(O)c2cccc3ccccc23)nc2ccccc21 (centres unmarked) | -2.27

SMILES | % Inhibition @ 10 uM [%]
CC1CCN(S(=O)(=O)c2ccc(NC(=O)C3c4ccccc4Oc4ccccc43)cc2)CC1 | -4.6
CCC(C)NC(=O)CN(c1cc(C)ccc1OC)S(=O)(=O)c1ccccc1 (centres unmarked) | -3.37
CCOC(=O)N1CCC(N2C[C@@H]3C[C@H](C2)c2cccc(=O)n2C3)CC1 | 1.54
CC1(C)CC(=O)C2=C(C1)OC(N)=C(C#N)C2c1ccc(COc2cccc(Br)c2)o1 (centres unmarked) | 4.75
COc1ccc(CCNC(=O)CC2Sc3ccc(C(F)(F)F)cc3NC2=O)cc1OC (centres unmarked) | 3.5
CCN(CC)CCNC(=O)Cn1ccc2ccccc2c1=O | 1.91
O=C(COc1ccc(Cl)cc1Cl)N1CCOCC1 | -0.999
Cc1ccc(C(=O)Nc2ccc(S(=O)(=O)NC(C)C)cc2)cc1Br | 5.07
CC1(C)CC2=Nc3ccccc3SC2=C(O)C1 | -11.6
CCCCOc1ccc(C2NC(=O)NC(C)=C2C(C)=O)cc1OCC (centres unmarked) | -0.968
CC1CCc2c(sc(NC(=O)COc3ccccc3)c2C(N)=O)C1 (centres unmarked) | 9.91
O=C(c1ccc2c(c1)OCO2)c1cc2ccc(O)cc2oc1=O | 0.44
CCOC(=O)C1=C(N)OC2=C(C(=O)CCC2)C1c1cccs1 (centres unmarked) | -8.44
C#CCOc1nc2c(c(=O)n(Cc3ccc(Cl)c(Cl)c3)c(=O)n2C)n1C | 0.0645
CC(C)(C)OC(=O)N1CCN(C(=O)c2sc3cc(Cl)ccc3c2Cl)CC1 | 2.68
O=C1OC(c2ccc(Cl)cc2Cl)=N/C1=C\c1cccs1 | -5.79
Cc1ccc2nc3c(O)n(CC(=O)N4CCOCC4)ncc-3c2c1 | -5.75
O=C(NC1CCCc2ccccc21)c1ccc(CS(=O)(=O)c2ccc(Br)cc2)o1 (centres unmarked) | -4.53
CCOc1ccc2nc(N3CCC(C(=O)NCCC4=CCCCC4)CC3)sc2c1 | 3.4
N#C/C(=C\c1ccc(SCc2ccc(Cl)cc2)o1)C(=O)NCc1ccco1 | -0.0115
CC(=O)Nc1ccc(N2C(=O)C(O)=C(C(=O)c3ccc(Cl)cc3)C2c2ccc(F)cc2)cc1 (centres unmarked) | -3.43
Cc1ccc2c(c1)C1(C(=O)N2)N2CC3(C)CN1CC(C)(C2)C3=O (centres unmarked) | -1.42
Cc1cc(/C=C2/C(=N)N3C(=NC2=O)SN=C3S(C)(=O)=O)c(C)n1-c1cccc2ccccc12 | 3.48
Cc1ccc(/C(O)=C/c2nc3ccccc3nc2O)cc1C | 0.738
COc1ccc2[nH]c3c(c2c1)CCc1nonc1-3 | -4.68
